# Laboratory results from PubChem BioAssay AID624417 (National Center for Advancing Translational Sciences (NCATS), 2012).
# Hit rate of the full screen: of about 410,000 compounds, about 6,400 (1.6%) were called active. Inconclusive means that the source gave no clear call. Such entries were picked first, then a sample of the others. Calls follow the shape of the dose curve; as a rule, active = well fitted inhibition curve with a large enough effect; inconclusive = small, poorly fitted or top-dose-only effect; inactive = no such curve, though single readings can be large or run the other way. No potency is given beside an inconclusive call; the fits are too rough.
# Target: Glucagon-like peptide 1 receptor (Homo sapiens) (UniProt P43220)
# Sequence of UniProt P43220 (P43220 whole entry, looked up): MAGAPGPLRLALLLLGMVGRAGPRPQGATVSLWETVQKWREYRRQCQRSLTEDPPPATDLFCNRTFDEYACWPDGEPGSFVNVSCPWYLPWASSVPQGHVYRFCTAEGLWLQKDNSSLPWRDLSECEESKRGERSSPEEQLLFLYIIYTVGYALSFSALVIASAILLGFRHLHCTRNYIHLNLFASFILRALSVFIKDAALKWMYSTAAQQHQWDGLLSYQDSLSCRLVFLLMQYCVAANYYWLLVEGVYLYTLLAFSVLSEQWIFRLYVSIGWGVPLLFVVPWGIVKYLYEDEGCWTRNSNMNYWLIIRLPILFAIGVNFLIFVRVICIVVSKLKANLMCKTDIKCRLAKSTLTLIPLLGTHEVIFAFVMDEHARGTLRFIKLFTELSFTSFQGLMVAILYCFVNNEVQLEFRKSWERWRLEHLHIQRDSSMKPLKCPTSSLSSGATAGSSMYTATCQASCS
# Assay: qHTS of GLP-1 Receptor Inverse Agonists (Inhibition Mode); also: nearly all actives have a fitted effect of over 55% in size
# Details: HEK293 GLP-1R CRE-luciferase, luminescence, 24 h, GLP-1R form is constitutively active; activity change, negative = inhibition: at 38.3 µM (top of the series) unless noted
# Summary of the method: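 Inverse agonism was detected as reduced cAMP-driven luciferase luminescence after 24 h compound treatment. The cells were HEK293 clones expressing constitutively active human GLP-1R with the reporter. Reporter-only and GPR119 cell lines served as counterscreen controls.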
# % is scaled to controls: 0 for no effect and ±100 for the full control effect; potency is read from the fitted curve at half-maximal effect; tags tell the direction and shape of the fitted curve.
SMILES,"activity change, negative = inhibition",Potency
Cn1c2c(c(=O)n3ncnc13)CCCC2,inactive: 1.93%,–
C(=C(c1ccccc1)c1ccccc1)c1ccccn1,–,"inconclusive [inhibitor, partial curve, poor fit]"
Cn1c(=O)c2c(nc(CN3CCN(Cc4ccccc4)CC3)n2CCN2CCOCC2)n(C)c1=O,–,"inconclusive [inhibitor, single point]"
CC(C)CN1CCC1(C)C(=O)Nc1ccc(OC(F)F)cc1 (stereo unspecified),inactive: -21%,–
Clc1ccc(SCCCCn2ccnc2)cc1,–,"inconclusive [inhibitor, single point]"
CCN(CC)CCNC(=O)C(=O)NCC1OCCN1S(=O)(=O)c1ccc(Cl)cc1 (stereo unspecified),–,"inconclusive [inhibitor, partial curve, poor fit]"
c1ccc(-c2cc(N3CCCCC3)c3ccccc3n2)cc1,–,"inconclusive [inhibitor, partial curve, poor fit]"
O=C(NNc1nc(-c2ccc(Br)cc2)cs1)c1ccco1,–,"inconclusive [inhibitor, single point]"
Cc1cc(NC(=O)CCc2nc3cccnc3n2Cc2cccs2)ccc1Br,–,"inconclusive [inhibitor, partial curve, poor fit]"
CCOc1ccc(N(C(C)C(=O)NC2CCCCCC2)S(C)(=O)=O)cc1 (stereo unspecified),inconclusive: -33.3% [inhibitor],–
Cc1cccc(NC(=O)c2oc3ccccc3c2NC(=O)c2cc(=O)c3ccc(C)cc3o2)c1,inactive: 11.8%,–
CSc1nc(C(=O)N2CCCC(N3CCN(c4ccccc4C)CC3)C2)cs1 (stereo unspecified),–,"inconclusive [inhibitor, partial curve, poor fit]"
CCOc1cccc(CN2CCC(Oc3ccc(C(=O)N4CCCC4)cc3)CC2)c1,–,"inconclusive [inhibitor, partial curve, poor fit]"
Cc1cc(C(=O)NC2CC(C)(C)Cc3c2cnn3-c2ccccc2)n[nH]1 (stereo unspecified),–,"inconclusive [inhibitor, single point]"
CN(C)c1cccc(C(=O)Nc2nc3ccc(S(=O)(=O)N4CCCC4)cc3s2)c1,–,"inconclusive [inhibitor, partial curve]"
O=C(Nc1ccc2c(c1)OCCO2)C1CCCN(S(=O)(=O)Cc2ccccc2)C1 (stereo unspecified),–,"inconclusive [inhibitor, partial curve, poor fit]"
COc1ccc(N2CCc3c(C)nc4c(OC)cccc4c32)cc1,–,"inconclusive [inhibitor, full curve, poor fit]"
COc1ccccc1-c1nnc(SCC(=O)NCc2c(C)c(Cl)cc(C(C)C)c2O)o1,–,"inconclusive [inhibitor, partial curve, poor fit]"
NS(=O)(=O)c1cccc(NC(=O)COC(=O)/C(=C/c2cccs2)c2cccs2)c1,–,"inconclusive [inhibitor, single point]"
Cc1nn(-c2ccccc2)c(Cl)c1CN(C(=O)CCl)c1cccc2ccccc12,–,"inconclusive [inhibitor, partial curve, poor fit]"
CN1CCCC1CCNc1ccc2sc3ccccc3c(=O)c2c1 (stereo unspecified),–,active: 14.1 µM

SMILES,"activity change, negative = inhibition",Potency
CC1CCCCN1C(=O)COC(=O)c1n[nH]c2ccccc12 (stereo unspecified),inactive: -19%,–
Cc1cccn2c(N)c(-c3ccccc3)nc12,inactive: 3.08%,–
O=S(=O)(c1ccc2nc(Nc3ccccc3)ccc2c1)N1CCCCC1,–,"inconclusive [inhibitor, partial curve, poor fit]"
COc1ccc(CCNC(=O)CSc2nc3scc(-c4ccccc4)c3c(=O)[nH]2)cc1,–,"inconclusive [inhibitor, partial curve, poor fit]"
NC(=S)c1ccc(OCCCc2ccccc2)cc1,–,"inconclusive [inhibitor, single point]"
COP(=O)(OC)C(Nc1ccc(C)cc1)c1ccc(Br)cc1 (stereo unspecified),–,"inconclusive [inhibitor, single point]"
C=CCn1c(=O)/c(=C\c2ccccn2)s/c1=C(/C#N)C(=O)NCC1CCCO1 (stereo unspecified),inactive: 10.3%,–
COCCNc1c2c(c(C#N)c3nc4ccccc4n13)CCCC2,inactive: -8.36% [at 7.66 µM],–
O=C(NC1CCCCCC1)c1ccc(CS(=O)(=O)Cc2ccc(F)cc2)o1,–,"inconclusive [inhibitor, single point]"
Cc1c(C(=O)N2CCN(S(=O)(=O)c3ccc(F)cc3)CC2)oc2ccccc12,–,"inconclusive [inhibitor, single point]"
Cc1ccc(C)c(OCc2cc(C(=O)N3CCC(N4CCCC(O)C4)CC3)no2)c1 (stereo unspecified),–,"inconclusive [inhibitor, single point]"
O=C1C=C(c2ccccc2Oc2ccccc2)C[C@@H](c2ccc3c(c2)OCO3)C1,–,"inconclusive [inhibitor, single point]"
C=CCN(Cc1ccc(Br)s1)C(=O)c1ccc(OCc2c(C)noc2C)cc1,–,"inconclusive [inhibitor, single point]"
CC(C)(C)SC(=O)CC1NS(=O)(=O)OCC1NC(=O)OCC(Cl)(Cl)Cl (stereo unspecified),–,"inconclusive [inhibitor, partial curve, poor fit]"
CN(Cc1ccccc1)S(=O)(=O)c1ccc(Cl)c(C(=O)NCCCN2CCOCC2)c1,–,"inconclusive [inhibitor, partial curve, poor fit]"
O=[N+]([O-])c1ccc(OCCCCN2CCc3ccccc3C2)cc1,–,"inconclusive [inhibitor, single point]"
CCCS(=O)(=O)NC(=O)C1(C)CCCN(C(=O)c2ccccc2Br)C1 (stereo unspecified),–,"inconclusive [inhibitor, single point]"
Cc1cccnc1C(NC(=O)C1CCN(CCCc2ccccc2)CC1)c1ccc(F)cc1 (stereo unspecified),–,"inconclusive [inhibitor, single point]"
CC(=O)C1=C(C)NC2=C(C(=O)c3ccccc32)C1c1ccccc1 (stereo unspecified),inactive: -52%,–
COCCCn1cnc2c(c1=O)c1nc3ccccc3nc1n2-c1ccc(C)cc1,inactive: 23.4%,–
